Source: patent US20030028002A1 (ST JUDE CHILDREN S RESEARCH HOSPITAL, published 2003)

Key:
Experiment in all cases: GST pull-down of 35S-labelled in vitro translated cyclin
cyclin D2 = target: T1, cyclin D2 (mouse, UniProt P30280 1-289)
T1 construct: 35S-labelled in vitro translation product in the pull-down; baculovirus product in Sf9 cells
Protocol: (§1) Because DMP1 interacted with cyclin D2 in yeast, the ability of a glutathione S-transferase (GST)-DMP1 fusion protein to bind D-type cyclins in vitro is examined. GST is fused to residues 176-761 of DMP1 (in lieu of GAL4 in the original cDNA clone), and the bacterially synthesized recombinant protein is incubated with [³⁵S]methionine-labeled D-type cyclins prepared by transcription and translation in vitro. As a positive control, GST-RB which can specifically bind D-type cyclins in this assay is used (15). Bound cyclins recovered on washed glutathione-Sepharose beads are analyzed by electrophoresis on denaturing gels. […] GST-DMP1 is less efficient than GST-RB in binding cyclins D2 and D3 (˜4-fold less binding), and under these conditions, an interaction with D1 is not detected (lanes 3, 7, 11). No labeled proteins bind to GST alone (lanes 4, 8, 12), and neither cyclin A nor cyclin E bind to GST-RB or to GST-DMP1. A cyclin D2 mutant disrupted in an amino-terminal Leu-X-Cys-X-Glu pentapeptide that is required for high efficiency GST-RB binding is not detectably compromised in its interaction with GST-DMP1 (negative data not shown); in agreement, DMP1 bears no homology to RB or to RB-related family members (p107 and p130).

cyclin D1 = target: T2, cyclin D1 (mouse, UniProt P25322 1-295)
T2 construct: 35S-labelled in vitro translation product in the pull-down; baculovirus product in Sf9 cells
Protocol: as §1

cyclin D3 = target: T3, cyclin D3 (mouse, UniProt P30282 1-292)
T3 construct: 35S-labelled in vitro translation product in the pull-down; baculovirus product in Sf9 cells
T3 sequence (looked up): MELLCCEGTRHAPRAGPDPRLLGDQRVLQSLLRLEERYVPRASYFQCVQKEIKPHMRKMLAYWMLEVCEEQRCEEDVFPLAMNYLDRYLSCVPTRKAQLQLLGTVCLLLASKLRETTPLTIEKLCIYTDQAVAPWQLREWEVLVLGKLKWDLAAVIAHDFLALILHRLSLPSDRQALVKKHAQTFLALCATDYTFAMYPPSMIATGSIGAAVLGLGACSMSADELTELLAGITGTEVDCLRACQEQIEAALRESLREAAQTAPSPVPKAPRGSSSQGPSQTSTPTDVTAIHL
Protocol: as §1

Chain of cyclin D1 (P25322 whole entry): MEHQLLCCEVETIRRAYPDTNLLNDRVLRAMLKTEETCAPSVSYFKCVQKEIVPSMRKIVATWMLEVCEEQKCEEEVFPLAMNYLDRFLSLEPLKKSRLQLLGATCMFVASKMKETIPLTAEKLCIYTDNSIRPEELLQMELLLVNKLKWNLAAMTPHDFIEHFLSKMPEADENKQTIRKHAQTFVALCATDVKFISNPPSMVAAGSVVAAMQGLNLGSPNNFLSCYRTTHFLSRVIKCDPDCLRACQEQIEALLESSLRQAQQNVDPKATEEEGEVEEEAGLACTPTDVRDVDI
Chain of cyclin D2 (P30280 whole entry): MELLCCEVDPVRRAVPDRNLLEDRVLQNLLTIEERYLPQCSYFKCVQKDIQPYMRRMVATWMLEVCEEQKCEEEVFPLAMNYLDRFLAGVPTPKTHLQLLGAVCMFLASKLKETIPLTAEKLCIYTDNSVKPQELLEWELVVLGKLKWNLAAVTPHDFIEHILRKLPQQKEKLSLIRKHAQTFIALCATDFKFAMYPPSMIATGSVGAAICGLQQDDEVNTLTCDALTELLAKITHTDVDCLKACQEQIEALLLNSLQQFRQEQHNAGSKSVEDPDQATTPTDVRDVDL

binding result (cyclin D2): no binding
binding result (cyclin D1): no binding
binding result (cyclin D3): no binding
B1: GST alone (other)
chain: not shown
notes: Negative control; also called GST controls
